Measured values from PubChem BioAssay AID2147 (National Center for Advancing Translational Sciences (NCATS), 2009).
“And” between values parts separate entries of the source, which are not always exact repeats. Identical values can stand only once. Screen size: about 230,000 compounds; about 3,600 (1.6%) were called active. Inconclusive results, whose numbers are uncertain, are shown with a selection of clear calls. Calls come from the whole dose curve; as a rule, active = well fitted inhibition curve with a large enough effect (not every such curve was filed as active); inconclusive = small, poorly fitted or top-dose-only effect, or another doubt; inactive = no such curve, though single readings can be large or run the other way. Potencies of inconclusive entries are doubtful fits and often do not repeat.

molecular target: Lysine-specific demethylase 4E (Homo sapiens) (UniProt B2RXH2); experiment: qHTS Assay for Inhibitors of Human Jumonji Domain Containing 2E (JMJD2E); conditions: JMJD2E catalytic domain, FDH-coupled NADH fluorescence (FDH is formaldehyde dehydrogenase); series mostly up to 57.1 µM
Note: nearly all actives have a fitted effect of over 50% in size.
Potency is the fitted concentration of half-maximal effect; tags give direction and shape of the fitted curve.

UniProt B2RXH2, sequence (B2RXH2 whole entry, looked up, the tested form may be a part): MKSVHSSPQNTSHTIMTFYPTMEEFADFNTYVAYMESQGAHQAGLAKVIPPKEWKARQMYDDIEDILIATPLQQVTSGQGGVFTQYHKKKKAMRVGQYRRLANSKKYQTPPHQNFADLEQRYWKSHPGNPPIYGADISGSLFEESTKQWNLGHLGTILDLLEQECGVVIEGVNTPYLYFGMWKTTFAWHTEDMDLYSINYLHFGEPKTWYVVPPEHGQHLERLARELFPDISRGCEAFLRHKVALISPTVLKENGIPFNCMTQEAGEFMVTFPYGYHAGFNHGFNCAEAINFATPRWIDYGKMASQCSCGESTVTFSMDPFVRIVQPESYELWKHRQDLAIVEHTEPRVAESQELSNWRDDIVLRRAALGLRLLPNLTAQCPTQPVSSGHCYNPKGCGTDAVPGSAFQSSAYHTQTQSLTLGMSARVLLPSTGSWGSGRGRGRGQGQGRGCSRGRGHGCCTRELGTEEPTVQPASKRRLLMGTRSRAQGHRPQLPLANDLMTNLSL

| SMILES | Potency |
| --- | --- |
| O=C(NCc1ccco1)c1cnn2c(C(F)(F)F)cc(-c3ccccc3)nc12 | inconclusive: 31.6 µM [inhibitor, single point] |
| COc1ccc(C(=O)NCC(=O)OCC(=O)Nc2sccc2C#N)cc1OC | inactive |
| CC1=Nc2cc(C(=O)O)ccc2Sc2ccc(Br)cc21 | inactive |
| O=C(COC(=O)c1ccco1)c1ccc2ccccc2c1 | inconclusive: 31.6 µM [inhibitor, single point] |
| Cc1ccc(O)c(-c2cc(-c3cccc(F)c3)n[nH]2)c1 | inactive |
| CCN(c1ccc(OC)cc1)S(=O)(=O)c1ccc2c(c1)CCN2C(=O)CCC(=O)O | inactive |
| CCN(C(=O)CN1CCN(C)CC1)c1cccc2ccccc12 | inconclusive: 35.5 µM [inhibitor, single point] |
| CCOC(=O)Nc1ccc(NC(=O)c2ccccc2F)cc1 | inconclusive: 39.8 µM [inhibitor, single point] |
| Cc1ccc(-c2csc(-c3ccncc3)n2)cc1 | inconclusive: 28.2 µM [inhibitor, partial curve] |
| Cc1cc(Br)ccc1NC(=O)c1cnc(N2CCN(c3ccccn3)CC2)c2ccccc12 | inconclusive: 25.1 µM [inhibitor, partial curve] |
| CC(C)Cn1[nH]c2c3c(ccc2c1=O)C(=O)c1ccccc1C3=O | inactive |
| O=C(CS(=O)(=O)c1ccccc1)Nc1ccc(S(=O)(=O)Nc2ccccn2)cc1 | inconclusive: 28.2 µM [inhibitor, partial curve] |
| CNCc1c(OCc2ccccc2F)ccc2ccccc12 | inconclusive: 39.8 µM [inhibitor, single point] |
| CCCC(CCC)C(=O)Nc1ccc2c(c1)N(C(=O)CCN1CCN(C)CC1)c1ccccc1CC2 | inconclusive: 39.8 µM [inhibitor, single point] |
| O=C(c1ccc(F)cc1)n1c(=S)nc2ccccn21 | inconclusive: 31.6 µM [inhibitor, partial curve, poor fit] |
| CCn1c(C)c(C(C)=O)c(N2CCN(c3ccccc3)CC2)nc1=S | inconclusive: 28.2 µM [inhibitor, single point] |
| Cc1cc(C)n2cc(CSc3nc4ccccc4s3)nc2n1 | inconclusive: 31.6 µM [inhibitor, single point] |
| c1ccc2[nH]c(-c3ccncc3)nc2c1 | inconclusive: 28.2 µM [inhibitor, partial curve] |
| S=c1[nH]nc(-c2ccccc2)n1Cc1ccccc1 | inconclusive: 39.8 µM [inhibitor, single point] |
| CCS(=O)(=O)n1nc(-c2ccccc2)nc1NCc1ccco1 | inactive |
| N=C(N)S/C=C\C(=O)O | inactive |
| Cc1nc2nc(-c3ccc(Cl)cc3)cn2nc1C | inconclusive: 7.08 µM [inhibitor, partial curve] |
| Clc1ccccc1-c1ncc2ccccn12 | inconclusive: 28.2 µM [inhibitor, partial curve] |
| C=CCNc1oc(-c2ccc(OC)cc2)nc1C#N | inconclusive: 28.2 µM [inhibitor, partial curve] |

| SMILES | Potency |
| --- | --- |
| COc1ccc(OC)c(S(=O)(=O)Nc2ccc(O)c(Sc3ncn[nH]3)c2)c1 | inactive |
| COC(=O)c1cc2c(ccn2-c2ccc(F)cc2)n1CC(=O)C(C)(C)C | inconclusive: 31.6 µM [inhibitor, partial curve] |
| COc1ccc(/C=N/Nc2ccccc2C(=O)O)cc1Cn1cc([N+](=O)[O-])cn1 | inconclusive: 28.2 µM [inhibitor, single point] |
| CC(=O)N(C)/C=C1\Sc2ccccc2C1=O | inactive |
| COc1ccc(-c2nn3cnnc3s2)cc1OC | inconclusive: 39.8 µM [inhibitor, single point] |
| CCN(CC)CCSc1nc(O)c(-c2ccccc2)c(=O)n1-c1ccccc1 | inactive |
| COC(=O)C1=C(C)NC(C)=C(C(=O)OC)C1C(=O)OC1CCCCC1=O (stereo unspecified) | inconclusive: 28.2 µM [inhibitor, single point] |
| CC(=O)Nc1ccc(C(=O)OCC(=O)NCc2ccccc2)cc1 | inconclusive: 39.8 µM [inhibitor, single point] |
| COC(=O)c1cc(NC(=O)c2cc(C)oc2C)cc(C(=O)OC)c1 | inactive |
| CC(=O)Nc1ccc(Sc2ncnc3scc(-c4ccccc4)c23)cc1 | inconclusive: 28.2 µM [inhibitor, single point] |
| COc1ccc(-c2nn(-c3ccccc3)cc2CO)cc1 | inconclusive: 7.08 µM [inhibitor, partial curve] |
| CCOC(=O)C1=C(N)N2C(=O)C(C)SC2=C(C(=O)OC)C1c1cccc(OC)c1 (stereo unspecified) | inactive |
| CCN(Cc1cc2cc(C)ccc2[nH]c1=O)S(=O)(=O)c1ccccc1 | inconclusive: 39.8 µM [inhibitor, single point] |
| CCN(C(=O)CSc1nnc2ccccn12)c1c(N)n(Cc2ccccc2)c(=O)[nH]c1=O | inconclusive: 39.8 µM [inhibitor, single point] |
| O=C(Nc1ccc(C(=O)N2CCCCC2)cc1)c1ccc(Br)cc1 | inactive |
| COc1cccc(/C=N/NC(=O)CNC(=O)CCc2ccccc2)c1O | active: 3.98 µM |
| CCOc1cc(/C=N/O)ccc1OCC(=O)Nc1cccc(C)c1 | inactive |
| O=C(N/N=C/c1ccc(OC(F)F)cc1OC(F)F)c1cccc(S(=O)(=O)N2CCOCC2)c1 | inactive |
| CC1(C)CC(n2c(NCCO)nc3c(c2=O)C2(CCCC2)Cc2ccccc2-3)CCO1 (stereo unspecified) | inconclusive: 22.4 µM [inhibitor, partial curve] |
| COc1ccc(/C=C/C(=O)O/N=C(\N)c2ccccc2)cc1OC | inconclusive: 28.2 µM [inhibitor, partial curve] |
| O=C(NCCCn1ccnc1)c1sc2cccc(F)c2c1Cl | inactive |
| Cn1c2c(c(=O)[nH]c1=O)C(c1cccc(O)c1)C1=C(N2)c2ccccc2C1=O (stereo unspecified) | inconclusive: 35.5 µM [inhibitor, single point] |
| CCc1nnc(NS(=O)(=O)c2ccc(N/C=C\C(=O)c3cccc4ccccc34)cc2)s1 | inconclusive: 25.1 µM [inhibitor, single point] |
| C[n+]1ccccc1N1CCN(c2ccccc2Cl)CC1 | inconclusive: 22.4 µM [inhibitor, single point] |

| SMILES | Potency |
| --- | --- |
| Cc1ccc2nc(CSc3nnc(Cc4cccs4)n3C3CCCCC3)cc(=O)n2c1 | inconclusive: 25.1 µM [inhibitor, single point] |
| CCN(CC)c1ccc(N=Cc2c(C)[nH]c3ccccc23)cc1 | active: 0.794 µM |
| COc1cc2c(cc1OC)C[N+](C)(C)CC2 | inconclusive: 25.1 µM [inhibitor, single point] |
| COc1ccccc1COCC(O)CN(Cc1ccco1)Cc1ccccc1O (stereo unspecified) | inactive |
| FC(F)Oc1ccc(NC(=S)NCc2nc3ccccc3[nH]2)cc1 | inconclusive: 39.8 µM [inhibitor, single point] |
| CCN1CCN(c2cc3c(cc2F)c(=O)c(C(=O)O)cn3C2CC2)CC1 | inconclusive: 11.2 µM [inhibitor, partial curve] and inconclusive: 8.91 µM [inhibitor, partial curve] |
| COc1ccc(C(=O)[C@H]2[C@H]3C(=O)N(c4ccc(OC(C)=O)cc4)C(=O)[C@H]3C3C=CC=NN32)cc1 (stereo partly specified) | inconclusive: 20 µM [inhibitor, single point] |
| Cc1c(C(=O)NCCSCc2cccc(C(F)(F)F)c2)cnn1-c1ccc(F)cc1 | inconclusive: 39.8 µM [inhibitor, single point] |
| O=C(c1cc(Cl)ccc1Cl)N1CCOCC1 | inconclusive: 39.8 µM [inhibitor, single point] |
| CCSc1nc(N)nc(-c2cccs2)c1C#N | inconclusive: 39.8 µM [inhibitor, single point] |
| Cc1cc2nc(-c3ccc(SCC(=O)N4CCc5ccccc54)nc3)[nH]c2cc1C | inconclusive: 25.1 µM [inhibitor, partial curve] |
| CCOC(=O)N1CCN(C(=O)Nc2ccc3nc(-c4ccccn4)c(-c4ccccn4)nc3c2)CC1 | inconclusive: 31.6 µM [inhibitor, partial curve] |
| CN(C)C(=O)COC(=O)c1cc(Cl)cc(Cl)c1N | inconclusive: 25.1 µM [inhibitor, partial curve] |
| CCNc1ccc(C(=O)NN=C2CCCC2)cc1[N+](=O)[O-] | inactive |
| COc1cccc(/C=N/NC(=O)CSc2ccccc2C)c1O | active: 28.2 µM |
| O=C1c2c(O)cc(O)cc2O[C@@]12c1c(cc(O)c3c1O[C@H](c1ccc(O)cc1)[C@@H](O)C3)O[C@@H]2c1ccc(O)cc1 | inactive |
| CCC(C(=O)NC1CCCC1)N(Cc1ccc2c(c1)OCO2)C(=O)c1snc(C(N)=O)c1N (stereo unspecified) | inconclusive: 28.2 µM [inhibitor, single point] |
| CC(SCC(=O)Nc1ccc(S(=O)(=O)N2CCCCC2)cc1)C(=O)O (stereo unspecified) | inactive |
| Cc1cc(C(=O)Nn2c(-c3ccc(Br)cc3)nc3ccccc3c2=O)ccc1[N+](=O)[O-] | inactive |
| Cc1cc(C)c(OCCCCN2CCC(C)CC2)c(Br)c1 | inconclusive: 31.6 µM [inhibitor, single point] |
| CCN(CC)S(=O)(=O)c1cccc(-c2nn(-c3ccccc3)cc2/C=C(\C#N)C(=O)NCc2ccco2)c1 | inconclusive: 35.5 µM [inhibitor, single point] |
| O=C(COc1ccc2c(c1)CCC2)N1CCc2ccccc21 | inactive |
| COc1ccc(N(C2=NCCCS2)S(=O)(=O)c2ccc(C(C)(C)C)cc2)cc1 | inactive |
